Patent publication US20110021424A1 (published 2011)

T1: Murine PDGF-Rβ-Fc (R&D Systems, #1042-PR/CF) (murine, UniProt P05622 32-530, limits assumed)
T1 construct: Bought; also called mouse PDGF-Rβ; mPDGF-Rβ; not shown: Fc part, bought, not described
T1 sequence (looked up): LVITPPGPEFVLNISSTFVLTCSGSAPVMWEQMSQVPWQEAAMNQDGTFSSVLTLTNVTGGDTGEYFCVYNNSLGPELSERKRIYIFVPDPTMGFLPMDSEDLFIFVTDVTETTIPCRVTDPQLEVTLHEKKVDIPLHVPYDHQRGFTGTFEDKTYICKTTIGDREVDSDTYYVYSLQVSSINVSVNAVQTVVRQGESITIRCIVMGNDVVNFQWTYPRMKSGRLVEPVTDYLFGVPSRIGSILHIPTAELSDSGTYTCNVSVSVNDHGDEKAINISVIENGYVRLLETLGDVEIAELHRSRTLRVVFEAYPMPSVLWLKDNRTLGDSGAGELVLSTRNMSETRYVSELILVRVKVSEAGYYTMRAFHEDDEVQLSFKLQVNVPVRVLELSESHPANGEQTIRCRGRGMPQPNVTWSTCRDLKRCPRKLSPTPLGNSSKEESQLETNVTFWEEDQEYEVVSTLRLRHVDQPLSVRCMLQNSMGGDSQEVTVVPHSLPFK


Columns and labels:
[1] = target: T2, human IgG1 Fc, polyclonal (Jackson Immuno Research, #009-000-008) (human, UniProt P01857-1 108-330 = IgG part); test: ELISA
T2 construct: domain: Fc; also called Fc from human IgG; IgG-Fc

[2] = target: T1, Murine PDGF-Rβ-Fc (R&D Systems, …); test: Biacore, receptor on chip, Langmuir 1:1 model, 4 nM and 20 nM injections
[3] = target: T1, Murine PDGF-Rβ-Fc (R&D Systems, …); test: Biacore, receptor on chip
[4] = target: T3, Human PDGF-sRα (R&D Systems, #322-PR/CF) (human, UniProt P16234 24-524, limits assumed); test: Biacore, receptor on chip
T3 construct: Bought; also called human PDGF-Rα; PDGF-Rα

[5] = target: T4, extracellular domain of recombinant human PDGF-Rβ with a C-terminal Fc fusion and His6-tag (R&D Systems, … (human, UniProt P09619 34-531)); test: Biacore, receptor on chip, Langmuir 1:1 model
T4 construct: Bought; also called hPDGF-Rβ; human PDGF-Rβ-Fc; not shown: Fc part of IgG

[6] = target: T1, Murine PDGF-Rβ-Fc (R&D Systems, …); test: Biacore, receptor on chip, Langmuir 1:1 model
[7] = target: T4, extracellular domain of recombinant …; test: Biacore, receptor on chip, Langmuir 1:1 model, 4 nM and 20 nM injections

Binder | binding result [1] | binding result [3] | other results
SEQ ID NO 368 (designed binder) VDNKFNKEIKFAAGEIDNLPNLNRKQWNAFIGSLRDDPSQSANLLAEAKKLNDAQAPK | no binding | – | –
Z02465-Cys-NEM (designed binder, C-terminal cysteine blocked with N-ethylmaleimide (NEM), 58-mer 418 inferred) GSSLQVDNKFNKELIEAAAEIDALPNLNRRQWNAFIKSLVDDPSQSANLLAEAKKLNDAQAPKVDC | – | – | Kd [2]: 7 nM
His6-Z02833 (designed binder, Mutated from Z02483) GSSHHHHHHLQVDAKFAKELVKAAAEIDALPNLTRRQWNAFIKKLVDDPSQSSELLSEAKKLNDSQAPKVD | – | binds | –
His6-Z02831 (designed binder, Mutated from Z02483) GSSHHHHHHLQVDAKFAKELVKAAAEIDALPNLTRRQWNAFIKSLVDDPSQSSELLSEAKKLNDSQAPKVD | – | binds | –
His6-Z02832 (designed binder, Mutated from Z02483) GSSHHHHHHLQVDAKFAKELVKAAAEIDALPNLNRRQWNAFIKKLVDDPSQSSELLSEAKKLNDSQAPKVD | – | binds | –
His6-Z02834 (designed binder, Mutated from Z02483) GSSHHHHHHLQVDAKFAKELVKAAAEIDALPNLTRRQWNAFIKKLVKDPSQSSELLSEAKKLNDSQAPKVD | – | binds | –
SEQ ID NO 359 (designed binder) VDNKFNKERAEAAQEIDQLPNLNRGQWNAFIASLVDDPSQSANLLAEAKKLNDAQAPK | no binding | – | –
SEQ ID NO 363 (designed binder) VDNKFNKERREAAKEIDSLPNLNRTQWNAFIRSLADDPSQSANLLAEAKKLNDAQAPK | no binding | – | –
SEQ ID NO 361 (designed binder) VDNKFNKELSDAAQEIDSLPNLNRSQWNAFIKSLIDDPSQSANLLAEAKKLNDAQAPK | no binding | – | –
SEQ ID NO 362 (designed binder) VDNKFNKERREAAAEIDNLPNLNRSQWNAFIQSLVDDPSQSANLLAEAKKLNDAQAPK | no binding | – | –
His6-Z02465-Cys-NEM (designed binder, C-terminal cysteine blocked with N-ethylmaleimide (NEM)) MGSSHHHHHHLQVDNKFNKELIEAAAEIDALPNLNRRQWNAFIKSLVDDPSQSANLLAEAKKLNDAQAPKVDC | – | – | binding result [4]: no binding (tested: 100 nM); Kd [5]: 0.5 nM; Kd [6]: 7 nM
His6-Z02483-Cys-NEM (designed binder, C-terminal cysteine blocked with N-ethylmaleimide (NEM)) MGSSHHHHHHLQVDNKFNKELVKAAAEIDALPNLNRRQWNAFIKSLVDDPSQSANLLAEAKKLNDAQAPKVDC | – | – | binding result [4]: no binding (tested: 100 nM); Kd [5]: 0.4 nM; Kd [6]: 6 nM
Z03358-Cys-NEM (designed binder, C-terminal cysteine blocked with N-ethylmaleimide (NEM), Mutated from Z02465) AEAKYAKELIEAAAEIDALPNLTRRQWNAFIKKLVDDPSQSSELLSEAKKLNDSQAPSC | – | – | Kd [7]: 0.44 nM; Kd [2]: 7 nM
